# PubChem BioAssay AID1030 (National Center for Advancing Translational Sciences (NCATS), 2008)
# About 16,000 (7.3%) of roughly 220,000 compounds were called active. The shares of active, inactive and inconclusive entries below differ from those in the screen. Calls come from the whole dose curve; as a rule, active = well fitted inhibition curve with a large enough effect (not every such curve was filed as active); inconclusive = small, poorly fitted or top-dose-only effect, or another doubt; inactive = no such curve, though single readings can be large or run the other way. No potency is given beside an inconclusive call; the fits are too rough.
# Biological target: Aldehyde dehydrogenase 1A1 (Homo sapiens) (UniProt P00352)
# Test: qHTS Assay for Inhibitors of Aldehyde Dehydrogenase 1 (ALDH1A1);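 for activity, negative = inhibition: plate controls were no enzyme wells and a reference inhibitor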
# Settings: Purified ALDH1A1, NADH fluorescence, propionaldehyde substrate; series mostly up to 75.3 µM
# Potency is the fitted concentration of half-maximal effect; tags give direction and shape of the fitted curve.
# Sequence of UniProt P00352 (P00352 whole entry, looked up): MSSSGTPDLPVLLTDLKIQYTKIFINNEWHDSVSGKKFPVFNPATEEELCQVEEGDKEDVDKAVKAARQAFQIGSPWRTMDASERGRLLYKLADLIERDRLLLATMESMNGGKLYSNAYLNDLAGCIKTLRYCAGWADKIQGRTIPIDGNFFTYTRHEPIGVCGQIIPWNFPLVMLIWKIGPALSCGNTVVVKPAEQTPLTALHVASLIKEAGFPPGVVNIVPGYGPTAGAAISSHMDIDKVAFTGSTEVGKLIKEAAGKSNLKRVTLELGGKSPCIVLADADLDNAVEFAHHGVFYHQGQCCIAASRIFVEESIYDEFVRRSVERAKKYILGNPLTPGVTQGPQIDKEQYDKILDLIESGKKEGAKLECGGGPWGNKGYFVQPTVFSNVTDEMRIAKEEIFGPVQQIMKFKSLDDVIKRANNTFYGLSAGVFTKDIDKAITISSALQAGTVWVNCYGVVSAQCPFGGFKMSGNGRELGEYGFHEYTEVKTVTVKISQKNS
Structure (SMILES),Potency,"activity, negative = inhibition"
CCCCn1c(CN2CCN(C(=O)OCC)CC2)nc2c1c(=O)n(C)c(=O)n2C,"inconclusive [inhibitor, partial curve]",
NC(=S)NN=C1C2CC3CC(C2)CC1C3,active: 25.1 µM,
Cc1ccc(NC(=O)c2ccc(CSc3nnc(C)s3)cc2)cc1,"inconclusive [inhibitor, single point]",
CN(C)CCNC(=O)c1cc(Br)ccc1Cl,inactive,
CCOc1ccc(C(=O)Nc2nccs2)cc1[N+](=O)[O-],"inconclusive [inhibitor, full curve, poor fit]",
O=C(NC(=S)Nc1ccc(N2CCCCC2)cc1)c1ccc2c(c1)OCCO2,active: 10 µM,
C#CCSc1nccc(-c2nn(-c3ccc(C)cc3)ccc2=O)n1,"inconclusive [inhibitor, single point]",
Cc1ccc(NC(=O)Cc2ccc3c(c2)CCCC3)cc1C,"inconclusive [inhibitor, single point]",
C=CCN1CN(Cc2ccco2)CNC1=S,inactive,
CCOc1ccc(NC(=O)c2ccc3c(c2)N(Cc2ccc(F)cc2)C(=O)CS3=O)cc1 (stereo not drawn),"inconclusive [inhibitor, single point]",
CC1(C)CC(=O)c2sc(NC(=O)c3cccs3)nc2C1,active: 15.8 µM,
COC(=O)c1cc(C(=O)OC)cc(N2C(=O)CC(N3CCN(c4ccccc4)CC3)C2=O)c1 (stereo not drawn),active: 31.6 µM,
COc1nc(NCCO)nc(Nc2ccc([N+](=O)[O-])cc2)n1,"inconclusive [inhibitor, single point]",
Cn1c(C(=O)NCCCN2CCN(c3cccc(Cl)c3)CC2)cc2c(=O)n(C)c3ccccc3c21,"inconclusive [inhibitor, single point]",
CCCCOP(=O)(c1ccc(N(C)C)cc1)C(O)c1ccccc1F (stereo not drawn),"inconclusive [inhibitor, single point]",
CCCC(CCC)=NNC(=O)CN(Cc1ccccc1)S(=O)(=O)c1ccccc1,active: 8.91 µM,
CCOCCCNC(=O)/C(C#N)=C/c1cc(C)c(O)c(C)c1,active: 10 µM,
Cc1cc(C)n2nc(C(=O)OCC(=O)Nc3ccc4c(c3)OC(F)(F)O4)nc2n1,inactive,
CCN(CC)CC(O)c1cccn1-c1ccc(CNC(=O)NC(C)C)cc1 (stereo not drawn),"inconclusive [inhibitor, partial curve, poor fit]",
CCCN(C#N)c1nc(NCC)nc(NC(C)C)n1,active: 10 µM,
CCCNC(=S)N1CCC(NC(=O)C2CCCCC2)CC1,inactive,
O=C(c1ccco1)N1CCC2(CCCN(c3ccccc3)C2)CC1,"inconclusive [inhibitor, single point]",
Cc1ccccc1Nc1nc(N)nc(CSc2nncn2C)n1,inactive,
O=C(CSc1nnc(-c2cc(-c3cccs3)nc3ccccc23)o1)NC1CCCCC1,"inconclusive [inhibitor, partial curve]",
CCOC(=O)c1cc(-c2cccc([N+](=O)[O-])c2)n[nH]1,inactive,
CC(C)CCc1c(O)nc(SCC(C)C)[nH]c1=O,inactive,

Structure (SMILES),Potency,"activity, negative = inhibition"
CCN(CC)S(=O)(=O)c1ccc(Nc2ccc(-c3ccc4c(c3)OCCO4)nn2)cc1,"inconclusive [inhibitor, partial curve]",
CCC1(c2ccccc2)NC(=S)N(c2ccc(C)c(C)c2)N1 (stereo not drawn),"inconclusive [inhibitor, single point]",
Cc1ccc(OC(=O)CCc2c(C)nc3ncnn3c2C)cc1,"inconclusive [inhibitor, partial curve]",
CC1CCCCN1Cc1ccc(N)cc1 (stereo not drawn),"inconclusive [inhibitor, single point]",
Cc1ncoc1C(=O)Nc1cccc(Cl)c1C,"inconclusive [inhibitor, single point]",
Cc1ccc(S(=O)(=O)c2cn(CC(=O)Nc3ccccc3)c3ccc(F)cc3c2=O)cc1,"inconclusive [inhibitor, single point]",
CC(C)(C)C1CCc2c(C(=O)NNC(=O)CCC(=O)O)csc2C1 (stereo not drawn),inactive,
CCC1CCCCN1S(=O)(=O)c1ccccc1[N+](=O)[O-] (stereo not drawn),"inconclusive [inhibitor, single point]",
O=C1COc2ccc(C(=O)/C=C/c3ccccc3)cc2N1,"inconclusive [inhibitor, full curve]",
CCN1C(=O)C(NC(C)=O)c2cc(Br)ccc21 (stereo not drawn),"inconclusive [inhibitor, full curve]",
C=CCOC(=O)C1=C(C)Nc2ncnn2C1c1cccs1 (stereo not drawn),inactive,
Cc1cc(C)cc(N)c1,active: 25.1 µM,
CCOC(=O)c1c(NC(=S)NC)sc2c1CC(C)(C)SC2,active: 25.1 µM,
CCOc1cc(/C=C2/SC(=S)NC2=O)ccc1OC(=O)c1ccco1,active: 8.91 µM,
O=C(Nc1cccn(Cc2c(Cl)cccc2Cl)c1=O)C1CC1,"inconclusive [inhibitor, single point]",
CCOc1ccc(-c2nnn(CC(=O)c3ccc4c(c3)OCCO4)n2)cc1OCC,"inconclusive [inhibitor, partial curve]",
CC(=O)Oc1ccc2c(=O)c(Oc3ccccc3)coc2c1OC(C)=O,inactive,
N#CCCn1cc(/C=N/O)c(-c2ccc(F)cc2)n1,inactive,
Cc1sc2ccccc2[n+]1CCC(C)S(=O)(=O)[O-] (stereo not drawn),inactive,
O=C(CSc1nnc(-c2cnccn2)n1Cc1ccco1)c1ccc(Cl)c(Cl)c1,"inconclusive [inhibitor, partial curve]",
CCOc1ccc(S(=O)(=O)NCc2cccnc2)cc1C,"inconclusive [inhibitor, single point]",
O=C(c1ccco1)N1CCN(S(=O)(=O)Cc2ccccc2Cl)CC1,active: 10 µM,
O=C(O)[C@@H]1[C@@H]2O[C@H]([C@@H](Br)[C@H]2Br)[C@H]1C(=O)O,,inactive: -2.1% [at 13.5 µM]
CC1=C(C(N)=O)C(c2cccs2)n2nc(-c3cccc(C)c3)nc2N1 (stereo not drawn),inactive,
Cc1cc(C)nc(NC2=NCC(=O)N2CCc2c[nH]c3ccccc23)n1,"inconclusive [inhibitor, single point]",
COc1ccc2c(c1)c(=O)oc1cc(OCC(=O)NC3CC3)ccc12,"inconclusive [inhibitor, partial curve]",

Structure (SMILES),Potency,"activity, negative = inhibition"
COCCn1c(SCC(=O)Nc2ccc(C)cc2C)nc2c(oc3ccccc32)c1=O,inactive,
O=S(=O)(c1cccc2cnccc12)N1CCCNCC1,inactive,
COc1ccc(-n2c(C)cc(C(=O)COC(=O)c3cc(OC)c(OC)cc3NC(=O)c3cccs3)c2C)cc1,"inconclusive [inhibitor, partial curve]",
COc1ccc(-c2nc3ccccc3[nH]2)cc1,"inconclusive [inhibitor, single point]",
COc1ccc(OC)c(/C=N\NC(=O)CSc2nnc(CCCc3ccc(OC)c(C)c3)o2)c1,"inconclusive [inhibitor, single point]",
CC(C)CC(CO)N1CCN(C(=O)c2ccc(C(C)(C)C)cc2)CCC1=O (stereo not drawn),"inconclusive [inhibitor, single point]",
CC(C)(C)CC(C)(C)NC(=S)NC1CCN(Cc2ccccc2)CC1,"inconclusive [inhibitor, single point]",
CC(C)Cc1nnc(NC(=O)Cc2cccs2)s1,"inconclusive [inhibitor, single point]",
CCN(CC)S(=O)(=O)c1ccc(NC(=O)C2CCCN(C(=O)c3ccc(Cl)cc3)C2)cc1 (stereo not drawn),"inconclusive [inhibitor, partial curve]",
O=C(c1ccc(Cn2cc(Br)cn2)o1)n1cccn1,inactive,
Nn1c(=O)[nH]c2c([nH]c3ccccc32)c1=O,"inconclusive [inhibitor, partial curve]",
N#Cc1ccc(OC(=O)c2ccc(N=C(N)N)cc2)cc1,,inactive: 26.1% [at 13.5 µM]
CCCCC1(CCCC)NC(=S)N(Nc2ccc(C)cc2)C1=O,inactive,
c1ccc2c(c1)Nc1cc3ccccc3cc1S2,inactive,
Cc1ccc(NC(=S)NCCc2ccccc2)nc1,active: 10 µM,
CCC(CC)NC(=O)Cc1ccccc1[N+](=O)[O-],inactive,
Cc1cccc2cc(C#N)c(SCC(=O)N3CCC(C)CC3)nc12,"inconclusive [inhibitor, partial curve]",
CC1CCC2C(=O)N3C(CCC(C)[C@H]3c3cccc(N4CCCC4=O)c3)C(=O)N2C1c1cccc(N2CCCC2=O)c1 (stereo partly drawn),,inactive: -0.194% [at 13.5 µM]
Cc1cc(OCC[N+]2(C)CCCCC2)nc2ccccc12,inactive,
CSc1ccc(/C=N/NC(=O)c2cccc(Cl)c2)cc1,"inconclusive [inhibitor, partial curve]",
CCOC(=O)C(C)Oc1cccc2c(=O)n(CC(=O)N3CCCc4ccccc43)ccc12 (stereo not drawn),active: 20 µM,
O=C(COC(=O)CCC1CCCC1)Nc1ccc(Cl)cc1F,"inconclusive [inhibitor, single point]",
O=C(NCCN1CCOCC1)C1CCN(c2ncnc3c2sc2cccc(F)c23)CC1,"inconclusive [inhibitor, partial curve]",
Cc1ccnc(NC(=O)CN2C(=O)c3ccccc3C2=O)c1,inactive,
CC(=O)C1=C(C)NC(SCC(=O)c2ccccc2)=C(C#N)C1c1ccco1 (stereo not drawn),active: 20 µM,
O=C(NCc1ccc(N2CCCC2=O)cc1)c1cn(CCc2ccccc2)nn1,inactive,
